# Assay results taken from publication PMC9911399, “Two distinct binding modes provide the RNA-binding protein RbFox with extraordinary sequence specificity”.
# Numbering of substitutions follows the chain as printed; changes in the protein carry UniProt numbers. This is one part of the list.
# B1: GAGUACG (DNA:RNA)
# RNA: GGGAGACCGGAAUUCAGAUUGUCCGAGUACGUUAAAUCCCGUCGUAGCCACCA
# DNA 1: CAATCTGAATTCCGGTCTCCC
# DNA 2: TGGTGGCTACGACGGGATT
# B2: CCGUCCU (DNA:RNA)
# RNA: B1 RNA with G25C, A26C, A29C, G31U
# DNA 1: CAATCTGAATTCCGGTCTCCC
# DNA 2: TGGTGGCTACGACGGGATT
# B3: AGCCGCU (DNA:RNA)
# RNA: B1 RNA with G25A, A26G, G27C, U28C, A29G, G31U
# DNA 1: CAATCTGAATTCCGGTCTCCC
# DNA 2: TGGTGGCTACGACGGGATT
# B4: GUCACUG (DNA:RNA)
# RNA: B1 RNA with A26U, G27C, U28A, A29C, C30U
# DNA 1: CAATCTGAATTCCGGTCTCCC
# DNA 2: TGGTGGCTACGACGGGATT
# B5: GGGUAAU (DNA:RNA)
# RNA: B1 RNA with A26G, C30A, G31U
# DNA 1: CAATCTGAATTCCGGTCTCCC
# DNA 2: TGGTGGCTACGACGGGATT
# B6: CGUUUCU (DNA:RNA)
# RNA: B1 RNA with G25C, A26G, G27U, A29U, G31U
# DNA 1: CAATCTGAATTCCGGTCTCCC
# DNA 2: TGGTGGCTACGACGGGATT
# B7: GAAGCAC (DNA:RNA)
# RNA: B1 RNA with G27A, U28G, A29C, C30A, G31C
# DNA 1: CAATCTGAATTCCGGTCTCCC
# DNA 2: TGGTGGCTACGACGGGATT
# B8: CCCUCAA (DNA:RNA)
# RNA: B1 RNA with G25C, A26C, G27C, A29C, C30A, G31A
# DNA 1: CAATCTGAATTCCGGTCTCCC
# DNA 2: TGGTGGCTACGACGGGATT
# B9: ACCCUUC (DNA:RNA)
# RNA: GGGAGACCGGAAUUCAGAUUGUCCACCCUUCUUAAAUCCCGUCGUAGCCACCA
# DNA 1: CAATCTGAATTCCGGTCTCCC
# DNA 2: TGGTGGCTACGACGGGATT
# B10: GUCGUCU (DNA:RNA)
# RNA: B9 RNA with A25G, C26U, C28G, U30C, C31U
# DNA 1: CAATCTGAATTCCGGTCTCCC
# DNA 2: TGGTGGCTACGACGGGATT
# B11: UUUCAUG (DNA:RNA)
# RNA: B9 RNA with A25U, C26U, C27U, U29A, C31G
# DNA 1: CAATCTGAATTCCGGTCTCCC
# DNA 2: TGGTGGCTACGACGGGATT
# B12: AUCAAAG (DNA:RNA)
# RNA: B9 RNA with C26U, C28A, U29A, U30A, C31G
# DNA 1: CAATCTGAATTCCGGTCTCCC
# DNA 2: TGGTGGCTACGACGGGATT
# B13: GGAACAC (DNA:RNA)
# RNA: B9 RNA with A25G, C26G, C27A, C28A, U29C, U30A
# DNA 1: CAATCTGAATTCCGGTCTCCC
# DNA 2: TGGTGGCTACGACGGGATT
# B14: AAUGCGA (DNA:RNA)
# RNA: B9 RNA with C26A, C27U, C28G, U29C, U30G, C31A
# DNA 1: CAATCTGAATTCCGGTCTCCC
# DNA 2: TGGTGGCTACGACGGGATT
# B15: AACUAGC (DNA:RNA)
# RNA: B9 RNA with C26A, C28U, U29A, U30G
# DNA 1: CAATCTGAATTCCGGTCTCCC
# DNA 2: TGGTGGCTACGACGGGATT
# B16: GUGAUAU (DNA:RNA)
# RNA: B1 RNA with A26U, U28A, A29U, C30A, G31U
# DNA 1: CAATCTGAATTCCGGTCTCCC
# DNA 2: TGGTGGCTACGACGGGATT
# B17: CCGAAAG (DNA:RNA)
# RNA: B1 RNA with G25C, A26C, U28A, C30A
# DNA 1: CAATCTGAATTCCGGTCTCCC
# DNA 2: TGGTGGCTACGACGGGATT
# B18: AUAGUGA (DNA:RNA)
# RNA: B9 RNA with C26U, C27A, C28G, U30G, C31A
# DNA 1: CAATCTGAATTCCGGTCTCCC
# DNA 2: TGGTGGCTACGACGGGATT
# B19: CUUCACU (DNA:RNA)
# RNA: B1 RNA with G25C, A26U, G27U, U28C, G31U
# DNA 1: CAATCTGAATTCCGGTCTCCC
# DNA 2: TGGTGGCTACGACGGGATT
# B20: UGUGACC (DNA:RNA)
# RNA: B1 RNA with G25U, A26G, G27U, U28G, G31C
# DNA 1: CAATCTGAATTCCGGTCTCCC
# DNA 2: TGGTGGCTACGACGGGATT
# Molecular target: T1, RBFOX1 RRM RbFoxmut (Fox-RRM*) (Homo sapiens, UniProt Q9NWB1 109-208, R118D;E147R;N151S;E152T)
# T1 sequence: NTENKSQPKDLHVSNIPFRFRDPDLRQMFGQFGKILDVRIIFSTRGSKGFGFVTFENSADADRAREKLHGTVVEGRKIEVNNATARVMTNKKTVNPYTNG
# Test: EMSA; HiTS-Eq, 1 nM pool, 10 min; buffer printed only for the single-RNA assays: 10 mM Tris pH 7.5, 150 mM NaCl, 3.4 mM EDTA, 0.001% NP-40, 30 C
# Conditions: tags: His6 N-terminal (pET28a); label: 5' 32P
# Outline: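 Purified RbFox RRM (wild type or mutant) was equilibrated for 10 min in 50 µL with 1 nM of a 5′-radiolabelled pool of RNA with 7 randomized nucleotides, its flanks annealed to DNA oligonucleotides, across increasing protein concentrations. Free RNA was separated by 8% native PAGE, excised, reverse-transcribed, PCR-barcoded and sequenced on an Illumina HiSeq 2500. Relative association constants came from read-count changes of each variant against the control reaction, normalised to the cognate motif.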
row,Binder,binding signal
1,B1,0.22 KA relative to UGCAUGU
2,B2,0.0685 KA relative to UGCAUGU
3,B3,0.0799 KA relative to UGCAUGU
4,B4,0.0956 KA relative to UGCAUGU
5,B5,0.101 KA relative to UGCAUGU
6,B6,0.102 KA relative to UGCAUGU
7,B7,0.0527 KA relative to UGCAUGU
8,B8,0.0954 KA relative to UGCAUGU
9,B9,0.0441 KA relative to UGCAUGU
10,B10,0.0809 KA relative to UGCAUGU
11,B11,0.114 KA relative to UGCAUGU
12,B12,0.0981 KA relative to UGCAUGU
13,B13,0.0551 KA relative to UGCAUGU
14,B14,0.0402 KA relative to UGCAUGU
15,B15,0.103 KA relative to UGCAUGU
16,B16,0.153 KA relative to UGCAUGU
17,B17,0.0651 KA relative to UGCAUGU
18,B18,0.0878 KA relative to UGCAUGU
19,B19,0.0956 KA relative to UGCAUGU
20,B20,0.188 KA relative to UGCAUGU
